# Reference: PubChem BioAssay AID624296 (National Center for Advancing Translational Sciences (NCATS), 2012)
# Out of some 350,000 compounds screened, about 9,900 (2.8%) were called active. Inconclusive results, whose numbers are uncertain, are shown with a selection of clear calls. Calls come from the whole dose curve; as a rule, active = well fitted activation curve with a large enough effect; inconclusive = small, poorly fitted or top-dose-only effect; inactive = no such curve, though single readings can be large or run the other way. Potencies of inconclusive entries are left out as doubtful fits.
# Assay: A quantitative high throughput screen for small molecules that induce DNA re-replication in MCF 10a normal breast cells. Note: nearly all actives have a fitted effect of over 50% in size.
# Conditions: MCF 10A DNA re-replication, Hoechst nuclear intensity, 48 h; series mostly up to 46.1 µM
# Potency is the fitted concentration of half-maximal effect; tags give direction and shape of the fitted curve.
row,SMILES,Potency
1,CCn1nc(NC(=O)c2ccco2)c2cc3cc(C)ccc3nc21,"inconclusive [activator, single point]"
2,Cc1ccc(C23CC4CC(CC(C(=O)N5CCN(C)CC5)(C4)C2)C3)cc1,"inconclusive [activator, single point]"
3,Nc1c2c(=O)[nH]c(O)cc2nn1-c1ccccc1,inactive
4,COc1ccc(NC(=O)COC(=O)c2c3c(nc4ccccc24)CCCC3)cc1Cl,"inconclusive [activator, single point]"
5,COc1ccc(COC(=O)c2n[nH]c3ccccc23)cc1F,"inconclusive [activator, single point]"
6,CC(NC(=O)C1CCN(S(=O)(=O)c2cnc[nH]2)CC1)c1ccccc1 (centres undefined),inactive
7,S=C1NCN(CCc2ccccc2)CN1Cc1ccccc1,inactive
8,CNC(=O)c1ccc(S(=O)(=O)c2ccc(Cl)cc2)c(NC(C)=O)c1,inactive
9,O=C(O)C(Oc1ccc2ccccc2c1)c1ccccc1 (centres undefined),inactive
10,Cc1cc(C)nc(N/N=C/c2ccc(Cl)cc2)n1,"inconclusive [activator, single point]"
11,COc1ccc(C)cc1Nc1n[n+](-c2ccccc2)c(-c2ccc(N(C)C)cc2)s1,"inconclusive [activator, partial curve, poor fit]"
12,COc1ccc(CCNc2oc(-c3ccccc3OC)nc2C#N)cc1OC,"inconclusive [activator, partial curve, poor fit]"
13,CC1CCCC(NC(=O)CCNS(=O)(=O)c2ccc(Br)cc2)C1C (centres undefined),"inconclusive [activator, partial curve, poor fit]"
14,COC(=O)c1c(C)[nH]c(C(=O)CSc2ccc(Cl)cc2)c1C,"inconclusive [activator, single point]"
15,O=c1cc(-c2ccc([N+](=O)[O-])cc2)c2ccc(O)cc2o1,"inconclusive [activator, single point]"
16,O=C(O)c1ccc(OCCn2ccnc2)cc1,"inconclusive [activator, single point]"
17,CCc1ccc2[nH]c(=O)c(C(c3nnnn3CCOC)N3CCN(c4ccccc4F)CC3)cc2c1 (centres undefined),"inconclusive [activator, single point]"
18,COc1ccc(CNC(=O)C[C@H]2C(=O)N(Cc3ccc(OC)cc3)C[C@@H]2Cc2ccccc2)cc1,inactive
19,Cc1cc(NC(=O)C2CC(=O)N(c3ccccc3Cl)C2)no1 (centres undefined),inactive
20,CCc1ccc2[nH]c(=O)c(C(c3nnnn3CC3CCCO3)N3CCN4CCCC4C3)cc2c1 (centres undefined),"inconclusive [activator, single point]"
21,CCCn1c2c(c(O)c(C(=O)Nc3nccs3)c1=O)CCCC2,"inconclusive [activator, single point]"
22,COc1ccc(C2CC(=O)N(C)c3ccccc3S2)cc1OC (centres undefined),"inconclusive [activator, partial curve, poor fit]"
23,Cc1ccccc1-c1nn(-c2ccc(F)cc2F)cc1CNCCCN(C)C,"inconclusive [activator, partial curve]"

row,SMILES,Potency
1,CCCC(c1nnnn1CC1CCCO1)N1CCN(c2cc(Cl)ccc2C)CC1 (centres undefined),active: 5.17 µM
2,CCc1nnc(NC(=O)CSc2ncnc3scc(-c4ccc(C)cc4)c23)s1,"inconclusive [activator, full curve, poor fit]"
3,Cc1cc(C(=O)Nn2c(C3CCCCC3)nc3ccccc3c2=O)ccc1[N+](=O)[O-],"inconclusive [activator, single point]"
4,CCN1CCN(CCCNC(=O)c2ccc(/C=C3/Sc4ccccc4N(Cc4ccccc4F)C3=O)cc2)CC1,active: 14.6 µM
5,CCOc1cc(Br)cc(/C=N/NC(=O)c2cccnc2)c1O,"inconclusive [activator, partial curve, poor fit]"
6,Cc1cccc(S(=O)(=O)Nc2ccc(-n3c(C)nc4ccccc4c3=O)cc2)c1,inactive
7,O=C(CSC1CC(=O)N(CC(c2ccccc2)c2ccccc2)C1=O)Nc1ccc(Cl)cc1 (centres undefined),"inconclusive [activator, partial curve, poor fit]"
8,CCOC(=O)CNC(=O)c1sc2ncnc(N3CCc4ccccc4C3)c2c1C,"inconclusive [activator, single point]"
9,COc1ccc(C(C(=O)NC2CCCC2)N(CCO)C(=O)Cn2nnc(-c3ccc(C)o3)n2)cc1OC (centres undefined),inactive
10,O=C1CC(N(Cc2cccs2)C(=O)Nc2ccccc2)C(=O)N1c1ccc(Cl)cc1 (centres undefined),inactive
11,COc1cc2c(cc1OC)CN(c1nc(CN3CCCCC3)nc3sc4c(c13)CCCC4)CC2,"inconclusive [activator, single point]"
12,COc1cccc(NS(=O)(=O)c2ccc3c(c2)CCCN3C(C)=O)c1,"inconclusive [activator, single point]"
13,CSc1nc(Sc2ccccc2Cl)c2ccccc2n1,active: 23.1 µM
14,Cc1csc(Sc2ccc([N+](=O)[O-])cc2C(=O)OCC(=O)NC2CCCC(C)C2C)n1 (centres undefined),active: 17.8 µM
15,COc1cc2[nH]c(Cl)c([N+](=O)[O-])c2cc1OC,inactive
16,CC(=O)c1c(C)oc2ccc(N(C(C)=O)S(=O)(=O)c3ccc(Br)cc3)cc12,"inconclusive [activator, single point]"
17,O=C(NC1CCCCCC1)c1c(F)c(F)c(F)c(F)c1F,"inconclusive [activator, partial curve]"
18,CC1=C(C)CS(=O)N(S(=O)(=O)c2ccccc2)C1 (centres undefined),"inconclusive [activator, single point]"
19,C=CCSc1cc(C)nc2c(-c3ccc(Cl)cc3)c(C)nn12,active: 20.6 µM
20,Clc1cccc(N/N=C(\Cc2nc3ccccc3[nH]2)c2ccccc2)c1,"inconclusive [activator, single point]"
21,COc1ccc(C2=C(c3ccc(OC)c(OC)c3)CN3CCCCC3C2)cc1 (centres undefined),inactive
22,COc1cc2c(c(NC(C)=O)c1)N(C(C)=O)CCC2,inactive
23,S=C(N/N=C/c1ccccc1Cl)Nc1cccc(Cl)c1Cl,"inconclusive [activator, full curve]"

row,SMILES,Potency
1,N#Cc1c(N)nc2c(c1-c1ccco1)CCCCC2,"inconclusive [activator, full curve, poor fit]"
2,O=c1c2ccccc2nc(N/N=C/c2ccc(O)cc2)n1O,"inconclusive [activator, single point]"
3,O=C(CSc1ccc(Cl)cc1)N1CCC(c2nc3ccccc3s2)CC1,"inconclusive [activator, single point]"
4,N#Cc1cccc(N=Cc2c(O)ccc3ccccc23)c1,"inconclusive [activator, single point]"
5,Cc1ccc(Sc2nc(-c3ccccc3)ccc2C#N)cc1,"inconclusive [activator, partial curve, poor fit]"
6,CS(=O)(=O)Nc1ccc(C2=NN(S(C)(=O)=O)C(c3ccc4nccnc4c3)C2)cc1 (centres undefined),inactive
7,COc1ccc(CCNC(=O)C2CCN(S(=O)(=O)N3CCC(C)CC3)CC2)cc1OC,inactive
8,CCN1C[C@@H]2[C@@H]3C(=O)N(Cc4ccccc4)C(=O)[C@@H]3[C@](Cc3ccccc3)(C1=O)N2C(=O)c1ccc(Cl)c(Cl)c1,"inconclusive [activator, partial curve, poor fit]"
9,FC(F)(F)c1cccc(Sc2nc(-c3ccccc3)nnc2C(F)(F)F)c1,active: 7.31 µM
10,CC(=O)Nc1c2c(nn1-c1ccccc1C)CSC2,inactive
11,Cc1ccc(NC(=O)c2oc3ccccc3c2NC(=O)c2ccc3c(c2)OCO3)cc1,"inconclusive [activator, partial curve, poor fit]"
12,Cc1onc(-c2ccccc2)c1C(=O)NC1CCC(C)CC1 (centres undefined),inactive
13,CCC1CCCCN1S(=O)(=O)c1ccc(S(=O)(=O)N(Cc2cccs2)C2CC2)cc1 (centres undefined),"inconclusive [activator, partial curve, poor fit]"
14,O=C(O)C1CC(=O)N(c2ccc3c(c2)OCCO3)C1 (centres undefined),"inconclusive [activator, single point]"
15,Cc1ccccc1C(=O)NC(CC(C)C)C(=O)Nc1ccc(S(N)(=O)=O)cc1 (centres undefined),inactive
16,O=C(c1ccco1)N1CCN(C(=O)C2Cc3ccccc3CN2S(=O)(=O)c2ccc(F)cc2)CC1 (centres undefined),"inconclusive [activator, partial curve, poor fit]"
17,COc1ccc(OC)c(NC(=O)NC2CCCc3ccccc32)c1 (centres undefined),"inconclusive [activator, single point]"
18,O=C(C1CCN(S(=O)(=O)c2cccc3nsnc23)CC1)N1CCc2ccccc2C1,"inconclusive [activator, single point]"
19,CN1CCN(C(=O)c2ccc3c(=O)n(Cc4ccc(Cl)cc4)c(=S)[nH]c3c2)CC1,inactive
20,Cc1c(C(=O)NCCSCc2ccc(F)cc2)cnn1-c1ccc(Cl)cc1,"inconclusive [activator, full curve, poor fit]"
21,OC(COCc1ccc(Cl)cc1)CN1CCN(CC(O)COCc2ccc(Cl)cc2)CC1 (centres undefined),"inconclusive [activator, partial curve, poor fit]"
22,CCC(C)Sc1ccc(-c2nc3ccc(C)cn3c2NCc2ccccc2)cc1OC (centres undefined),active: 6.51 µM
23,Cc1ccc(C(=O)Oc2coc(CSc3nnc(NC(=O)c4cccs4)s3)cc2=O)cc1C,"inconclusive [activator, full curve, poor fit]"
